Source: PubChem BioAssay AID360 (National Center for Advancing Translational Sciences (NCATS), 2006)
Screen size: about 48,000 compounds; about 550 (1.1%) were called active. Another 4% or so got no clear call; they are omitted. Cut-off read from the data, not from the text of the source: active = potency below about 15 µM; inconclusive = mostly about 16 µM to 33 µM; inactive = weaker than that. This is one part of the list.

What follows are compounds tested against Lysosomal acid glucosylceramidase (Homo sapiens) (UniProt P04062) (assay: Glucocerebrosidase). Conditions: purified enzyme, resorufin glucoside fluorescence (screen aimed at inhibitors), 20 min; series mostly up to 77 µM.
UniProt P04062, sequence (P04062 whole entry, looked up): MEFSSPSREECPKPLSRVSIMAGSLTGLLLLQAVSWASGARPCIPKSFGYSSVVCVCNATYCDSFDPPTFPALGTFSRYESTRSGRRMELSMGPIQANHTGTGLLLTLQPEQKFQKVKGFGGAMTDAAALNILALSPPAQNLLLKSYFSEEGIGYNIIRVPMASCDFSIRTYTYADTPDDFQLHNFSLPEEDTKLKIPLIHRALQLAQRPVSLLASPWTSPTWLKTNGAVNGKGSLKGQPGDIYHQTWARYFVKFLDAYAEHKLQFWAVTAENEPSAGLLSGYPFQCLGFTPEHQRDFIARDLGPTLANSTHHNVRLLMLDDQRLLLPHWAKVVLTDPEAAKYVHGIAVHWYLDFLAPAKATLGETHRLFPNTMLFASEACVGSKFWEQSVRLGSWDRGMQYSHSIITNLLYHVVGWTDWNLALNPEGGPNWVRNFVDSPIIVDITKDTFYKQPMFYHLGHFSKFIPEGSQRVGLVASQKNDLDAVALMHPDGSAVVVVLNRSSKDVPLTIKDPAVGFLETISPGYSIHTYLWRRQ
Summary of the method: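 Wild-type enzyme at 0.2 nM final in 50mM citric acid/KH2PO4, 10mM sodium taurocholate, 0.01% tween-20, pH 5.9, with resorufin beta-D-glucopyranoside at 30 uM final. Compounds titrated, 20 min at RT, red fluorescence read; AC50 from titration.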
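Note: the screen sought inhibitors.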
Potency is the fitted concentration of half-maximal effect.

| Compound | Potency |
| --- | --- |
| C=CCOc1ccc(CNc2nn[nH]n2)cc1 | inactive: > 76.9 µM |
| CCCn1c(SCC(=O)N2c3ccccc3Sc3ccccc32)nc2c1c(=O)n(C)c(=O)n2C | inactive: > 76.9 µM |
| O=C1c2ccccc2S(=O)(=O)N1CCOc1ccc(F)cc1 | inactive: > 76.9 µM |
| COCC(=O)Nc1nnc(COc2ccccc2)s1 | inactive: > 76.9 µM |
| CC1(C)CC(=O)c2cnc(NC(=O)CSc3nc4ccccc4o3)nc2C1 | inactive: > 76.9 µM |
| CC(NC(=O)Nc1ccccc1C(F)(F)F)C1CCCO1 (configuration not stated) | inactive: > 76.9 µM |
| COc1ccc(C2C3=C(N=C4SCC(=O)N42)c2ccccc2CC3)cc1OC (configuration not stated) | inactive: > 76.9 µM |
| O=S1(=O)CC=C(CSc2nc3ccccc3[nH]2)C1 | inactive: > 76.9 µM |
| Fc1cccc2sc(N3CCOCC3)nc12 | inactive: > 76.9 µM |
| Cc1cc(Cl)ccc1NC(=O)CSc1nnc(-c2ccncc2)n1Cc1ccco1 | inactive: > 76.9 µM |
| Cc1ccc(C2C(C#N)=C(N)Oc3c2oc(CO)cc3=O)o1 (configuration not stated) | inactive: > 76.9 µM |
| Cc1nc2cc(NC(=O)N3CCN(c4ccccn4)CC3)ccc2o1 | inactive: > 76.9 µM |
| COc1ccc(CNC(=O)C2CCCN2S(=O)(=O)c2ccc(S(=O)(=O)N(C)C)cc2)cc1 (configuration not stated) | inactive: > 76.9 µM |
| COc1ccc(OC)c(-c2cc(C(=O)N3CCc4ccccc4C3)no2)c1 | inactive: > 76.9 µM |
| Cc1ccc(S(=O)(=O)N2CCN(S(=O)(=O)N3CCCCC3)CC2)c(C)c1 | inactive: > 76.9 µM |
| Cc1cccc(NC(=O)CSc2nnc(-c3ccncc3)n2C)c1 | inactive: > 76.9 µM |
| Cc1cnc(NC(=O)C(C)N2C(=O)C3CC=CCC3C2=O)s1 (configuration not stated) | inactive: > 76.9 µM |
| Cc1ccc(NC(=O)CN2C(=O)COc3ccc(C)cc32)nc1 | inactive: > 76.9 µM |
| COc1cc(C2c3c(n[nH]c3C)C(=O)N2c2ccc(Br)cc2)ccc1O (configuration not stated) | inactive: > 76.9 µM |
| COc1cc(NC(=O)C(C)Oc2ccccc2)cc(OC)c1 (configuration not stated) | inactive: > 76.9 µM |
| COCCNc1nc2c(c(=O)n(C)c(=O)n2C)n1Cc1cccc(C)c1 | inactive: > 76.9 µM |
| COc1ccc(S(=O)(=O)Nc2ccc(S(=O)(=O)N3CCCCC3)cc2)cc1OC | inactive: > 76.9 µM |
| COc1ccc(NC(=O)CNCCC2=CCCCC2)cc1 | inactive: > 76.9 µM |

| Compound | Potency |
| --- | --- |
| C=CCN(C(=O)CNC(=O)c1ccco1)C(C(=O)NC1CCCCC1)c1ccc(F)cc1 (configuration not stated) | inactive: > 76.9 µM |
| Cc1ccc(NC(=O)N2CCCC2C(=O)NCCc2ccccc2)cc1 (configuration not stated) | inactive: > 76.9 µM |
| COc1ccc(S(=O)(=O)N(CC(=O)NCC2CCCO2)c2ccccc2)cc1OC (configuration not stated) | inactive: > 76.9 µM |
| CCOC(=O)c1nnn(-c2nonc2OC)c1-c1ccccc1 | inactive: > 76.9 µM |
| CC1CCc2cc(F)ccc2N1C(=O)CSc1nnc(-c2cccs2)n1C (configuration not stated) | inactive: > 76.9 µM |
| CCCCc1c(O)nc(SCC(=O)N2CCCCC2)n(-c2ccccc2C)c1=O | inactive: > 76.9 µM |
| CC(C)(C)C(=O)NC(=C(Cl)Cl)P(=O)(O)O | inactive: > 76.9 µM |
| COc1ccc2nc3oc(C(=O)N4CCN(c5cccc(Cl)c5)CC4)cc3cc2c1 | inactive: > 76.9 µM |
| Cc1ccc(C2C(C(=O)c3sc(-c4ccccc4)nc3C)=C(O)C(=O)N2CCN(C)C)o1 (configuration not stated) | inactive: > 76.9 µM |
| CCCS(=O)(=O)N1CCCC(C(=O)NC2CCCC(C)C2C)C1 (configuration not stated) | inactive: > 76.9 µM |
| Cc1nnc(NC(=O)CSc2nnnn2Cc2ccccc2)s1 | inactive |
| CCCOc1ccc(NC(N)=O)cc1OCCC | inactive: > 76.9 µM |
| CC1CCc2ccccc2N1C(=O)c1cccs1 (configuration not stated) | inactive: > 76.9 µM |
| CC(C)NC(=O)C1CC(=O)N(c2ccc(F)c(Cl)c2)C1 (configuration not stated) | inactive: > 76.9 µM |
| Cc1nnc(SCCn2c(N3CCCC(C)C3)nc3c2c(=O)[nH]c(=O)n3C)s1 (configuration not stated) | inactive: > 76.9 µM |
| O=C1C2C(C(=O)N1c1ccncc1)C1C=CC2C12CC2 (configuration not stated) | inactive: > 76.9 µM |
| c1n[nH]c(SCCCCSc2ncn[nH]2)n1 | inactive: > 76.9 µM |
| CCOc1ccc(C(C)=O)cc1N1C(=O)C2C3C=CC(C3=C(C)C)C2C1=O (configuration not stated) | inactive: > 76.9 µM |
| Cc1cnc(C(=O)Nc2ccc(F)c(F)c2)cn1 | inactive: > 76.9 µM |
| CC(=O)Nc1nonc1NC(C)=O | inactive: > 76.9 µM |
| c1ccc(-c2nn3c(Cn4nnc5ccccc54)nnc3s2)nc1 | inactive: > 76.9 µM |
| c1cc2c(cc1Nc1nc(-c3ccc4c(c3)OCO4)cs1)OCCO2 | inactive: > 76.9 µM |
| COc1ccc(C)cc1NC(=O)CCN1CCCC1 | inactive: > 76.9 µM |

| Compound | Potency |
| --- | --- |
| COc1ccc(C(=O)NC2=C(C#N)CCC2)cc1OC | inactive: > 76.9 µM |
| O=C(Nc1nccs1)c1ccc2nccnc2c1 | inactive: > 76.9 µM |
| CCOc1ccccc1-n1c(SCC(=O)NC(C)(C)C)nnc1-c1ccoc1C | inactive: > 76.9 µM |
| Cc1ccc(S(=O)(=O)Cn2nnnc2C(c2ccc(F)cc2)N2CCC(C(N)=O)CC2)cc1 (configuration not stated) | inactive: > 76.9 µM |
| O=C(CCN1C(=O)c2ccccc2C1=O)Nn1cnnc1 | inactive: > 76.9 µM |
| CCOCCCNC(=O)c1c(-c2ccccc2)noc1C | inactive: > 76.9 µM |
| O=C(CC(O)(c1ccccc1)C(F)(F)C(F)F)c1cccs1 (configuration not stated) | inactive: > 76.9 µM |
| CN(c1ccc(C(=O)NCCSCc2ccco2)cc1)S(C)(=O)=O | inactive |
| COc1ccc(NC(=O)c2ccco2)cc1NC(=O)c1cccnc1 | inactive: > 76.9 µM |
| CCCCNC(=O)c1ccc2c(c1)ncn2C1CCCCC1 | inactive: > 76.9 µM |
| CCOc1cc(S(=O)(=O)n2cc(-c3ccc(F)cc3)c(N)n2)cc(OCC)c1OCC | inactive: > 76.9 µM |
| Cc1cc(=O)oc2ccc(OCC(=O)N(Cc3ccc(F)cc3)Cc3ccco3)cc12 | inactive: > 76.9 µM |
| CCOC(=O)c1[nH]c(C)c(C(=O)NC(C)(C)C)c1C | inactive: > 76.9 µM |
| Cc1csc(NC(=O)CSc2nnc(C)n2Cc2ccco2)n1 | inactive: > 76.9 µM |
| CCN(CC)CC(=O)c1c[nH]c2ccccc12 | inactive: > 76.9 µM |
| C/C(O)=C(\C#N)c1nnc2n1CCCCC2 | inactive: > 76.9 µM |
| CC(C)(C)NC(=O)Cn1cc(C#N)c2cc(Br)ccc21 | inactive: > 76.9 µM |
| COc1ccc(C(=O)CSc2nn3c(=O)c(C(C)(C)C)nnc3s2)cc1 | inactive: > 76.9 µM |
| O=C(NCCC1=CCCCC1)N[C@@H](Cc1ccccc1)C(=O)O | inactive: > 76.9 µM |
| O=C1Nc2ccc(S(=O)(=O)NCCC3=CCCCC3)c3cccc1c23 | inactive: > 76.9 µM |
| Cc1nn(-c2ccccc2)c2c1C1(C(=O)N(C)c3ccccc31)C(C#N)=C(N)O2 (configuration not stated) | inactive: > 76.9 µM |
| CCOC(=O)Nc1cc(C(=O)OC)cc(C(=O)OC)c1 | inactive: > 76.9 µM |
| CCN1CCN(c2ccc(NC(=O)c3cccnc3)cc2Cl)CC1 | active: 6.35 µM |

| Compound | Potency |
| --- | --- |
| CCn1c(SCC(=O)NCCc2ccccc2)nnc1-c1cccs1 | inactive: > 76.9 µM |
| CCOC(=O)N1CCN(c2nc(-c3ccco3)cc(C(F)(F)F)n2)CC1 | inactive |
| NC(=O)c1ccc2c(c1)OCCO2 | inactive: > 76.9 µM |
| Cc1ccccc1N(C(=O)Cn1nnc2ccccc21)C(C(=O)NCc1ccco1)c1ccncc1 (configuration not stated) | inactive: > 76.9 µM |
| S=c1[nH]nc(COc2ccc(Cl)cc2)o1 | inactive: > 76.9 µM |
| CCOCCCNC(=O)c1ccc2c(c1)OCO2 | inactive: > 76.9 µM |
| CCCOc1ccc(C(=O)N2CCCc3ccccc32)cc1 | inactive: > 76.9 µM |
| O=C(COC(=O)c1cc[n+]([O-])cc1)Nc1ccc2c(c1)OCCO2 | inactive: > 76.9 µM |
| O=C(NC1CCCC1)C(c1ccsc1)N(Cc1ccco1)C(=O)Cc1cccs1 (configuration not stated) | inactive: > 76.9 µM |
| CC(OC(=O)c1nsc(Cl)c1Cl)C(=O)NCc1cccs1 (configuration not stated) | inactive: > 76.9 µM |
| Cn1c(Cc2ccc3c(c2)OCO3)nnc1SCC(=O)N1CCc2ccccc2C1 | inactive: > 76.9 µM |
| O=C(CN1C(=O)c2ccccc2S1(=O)=O)Nc1ccc(S(=O)(=O)N2CCCCC2)cc1 | inactive: > 76.9 µM |
| CCn1c(CC(=O)Nc2cccc(OC)c2)nnc1SCC(=O)N1CCN(c2ccccc2)CC1 | inactive: > 76.9 µM |
| COc1ccc(N2CC(O)=C(c3nc(C)cs3)C2=N)cc1 | inactive: > 76.9 µM |
| CCCCOC(=O)N1CCOCCOCCN(C(=O)OCCCC)CCOCCOCC1 | inactive: > 76.9 µM |
| NCCCNC(=O)c1cc2ccccc2[nH]1 | inactive: > 76.9 µM |
| CCOC(=O)N1CCC(NCCNC(=O)c2ccc(Cl)cc2)CC1 | inactive: > 76.9 µM |
| CCOC(=O)N1CCN(S(=O)(=O)c2ccc3c(c2)oc(=O)n3C)CC1 | inactive: > 76.9 µM |
| CCSc1nnc(NC(=O)c2ccc3c(c2)OCO3)s1 | inactive: > 76.9 µM |
| CC(C)(C)NC(=O)CSc1nnc(CN2CCCCCC2=O)n1-c1ccccn1 | inactive: > 76.9 µM |
| Cc1ccc(-n2ncc3c2ncn2nc(-c4ccco4)nc32)c(C)c1 | inactive: > 76.9 µM |
| O=C(NCCCN1CCN(CCCNC(=O)c2ccc3c(c2)OCO3)CC1)c1ccc2c(c1)OCO2 | inactive: > 76.9 µM |
| Cc1ccc(CCNC(=O)CN2CCN(Cc3ccccc3F)C2=O)cc1 | inactive: > 76.9 µM |
